Patent EP0109354B1, “Biocidally active mixture” (priority 1982, dated 1984)

Description: Einer 80%igen wässrigen Lösung von Tributyltetradecylphosphoniumchlorid (Vrb. 17) wird bei 30 °C Di-(tributylzinn)oxid (Vrb. 13) zugegeben. Dieses Gemisch wird während 24 h ständig geschüttelt. Danach wird festgestellt, ob sich die gesamte Menge Tributylzinnoxid gelöst hat.
[…] . Dasselbe Resultat wird auch mit einer 40%igen Lösung von (17) erhalten.
Analog Beispiel 1 werden folgende Resultate erzielt (Endkonzentrationen)

SMILES | Sn-Verbindung in Lösung (Endkonzentration) | Endkonzentration der P-Verbindung
CCC[CH2][Sn]([Cl])([CH2]CCC)[CH2]CCC [Verbindung 3, Tri-n-butylzinnchlorid] | 3,8 Mol-% | –
CCCCCCCCCCCCCC[P+](CCCC)(CCCC)CCCC.[Cl-] [Verbindung 17, Tri-n-butyl-tetradecyl-phosphoniumchlorid] | – | 9,2 Mol-%
